Results as given in PubChem BioAssay AID894 (National Center for Advancing Translational Sciences (NCATS), 2007).
“And” between values parts separate entries of the source, which are not always exact repeats. Equal entries are not always repeated. Out of some 150,000 compounds screened, about 6,500 (4.3%) were called active. This list was built around the results that the source calls inconclusive (neither active nor inactive); the mix of calls is not that of the screen. Calls come from the whole dose curve; as a rule, active = well fitted inhibition curve with a large enough effect (not every such curve was filed as active); inconclusive = small, poorly fitted or top-dose-only effect, or another doubt; inactive = no such curve, though single readings can be large or run the other way. No potency is given beside an inconclusive call; the fits are too rough.

Target: 15-hydroxyprostaglandin dehydrogenase [NAD(+)] (Homo sapiens) (UniProt P15428)
Test: qHTS Assay for Inhibitors of HPGD (15-Hydroxyprostaglandin Dehydrogenase)
Conditions: purified HPGD, NADH fluorescence kinetic, PGE2 substrate; activity change, negative = inhibition: stronger effect = lower value
In short: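 20 nM HPGD preincubated 15 min at room temperature with compound in 50 mM Tris-HCl pH 8, 0.01% Tween 20. Started with 1 mM NAD+ and 30 uM prostaglandin E2; NADH fluorescence (360/450 nm) read 5 times over 30-s intervals, last minus first.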
% is set by controls: 0 for no effect and ±100 for the full control effect; potency is the fitted concentration of half-maximal effect; tags give direction and shape of the fitted curve.

UniProt P15428, sequence (P15428 whole entry, looked up): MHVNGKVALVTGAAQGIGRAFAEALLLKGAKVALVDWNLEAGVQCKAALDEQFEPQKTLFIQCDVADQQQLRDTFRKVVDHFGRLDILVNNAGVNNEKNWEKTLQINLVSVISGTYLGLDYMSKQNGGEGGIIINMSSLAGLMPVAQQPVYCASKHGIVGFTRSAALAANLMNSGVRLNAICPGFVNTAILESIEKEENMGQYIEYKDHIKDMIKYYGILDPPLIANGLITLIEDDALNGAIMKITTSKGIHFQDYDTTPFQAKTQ

Q: How did the activity change, negative = inhibition turn out when `Cc1cc(NC(=O)CSc2nnnn2C2CCCC2)no1` was run?
A: inactive: -4.91%

Q: Which Potency does the source give for `Cc1cc(C)n(-c2nc3ccccc3nc2N2CCN(S(=O)(=O)c3ccc4ccccc4c3)CC2)n1` here?
A: inconclusive [inhibitor, partial curve]

Q: With `COc1cc(OC)cc(-c2cc3nc(C)cc(N4CCN(C(=O)c5ccco5)CC4)n3n2)c1` as the molecule, how does the Potency read?
A: inconclusive [inhibitor, partial curve]

Q: `CC1=C(C(=O)OCc2ccc3c(c2)OCO3)C(c2ccccc2OCc2ccccc2)NC(=O)N1` (centres undefined) was tested. Which activity change, negative = inhibition did it give?
A: inactive: -18.6%

Q: Which activity change, negative = inhibition does the source give for `NS(=O)(=O)c1ccc(N=Nc2ncccc2O)cc1` here?
A: inactive: -12.8%

Q: How did the activity change, negative = inhibition turn out when `CCc1ccc(NC(=O)c2onc(C)c2Cl)cc1` was run?
A: inactive: -10.7%

Q: For `Cc1cc(C)n2nc(SCc3ncc(-c4ccccc4)o3)nc2n1`, which Potency is on record?
A: inconclusive [inhibitor, partial curve]

Q: How did the Potency turn out when `CCOc1ccc2nc(NC(=O)c3ccc(OCC4CCCO4)cc3)sc2c1` (centres undefined) was run?
A: inconclusive [inhibitor, partial curve]

Q: Which Potency does the source give for `CCOC(=O)c1sc(=S)n(-c2ccc(F)c(F)c2)c1N` here?
A: inconclusive [inhibitor, partial curve]

Q: For `Cc1cc(C)nc(N2CCC(C(=O)NCc3ccco3)CC2)n1`, which Potency is on record?
A: inconclusive [inhibitor, partial curve]

Q: `COCCSc1nc2c(c(=O)[nH]c(=O)n2C)n1Cc1cccc(C)c1` was tested. Which Potency did it give?
A: inconclusive [inhibitor, partial curve]

Q: Which Potency does the source give for `COc1ccc(-c2cc(C(=O)NCC(C)C)no2)cc1` here?
A: inconclusive [inhibitor, partial curve]

Q: With `Cc1ccccc1-c1cc(C(=O)Nc2nc3c(s2)CCCC3)c2ccccc2n1` as the molecule, how does the Potency read?
A: inconclusive [inhibitor, single point]

Q: How did the Potency turn out when `c1cncc(-c2nn3c(Cn4nnc5ccccc54)nnc3s2)c1` was run?
A: active: 12.6 µM

Q: How did the Potency turn out when `CCOc1ccc(C(=O)c2nc3c(n2O)CCCCC3)cc1` was run?
A: inconclusive [inhibitor, single point]

Q: `Cc1ccc(C(=O)NC(=S)NNC(=O)c2ccccc2[N+](=O)[O-])cc1` was tested. Which Potency did it give?
A: active: 39.8 µM

Q: Which Potency does the source give for `CCOC(=O)C1=C(C)NC2=C(C(=O)CCC2)C1c1cn(Cc2ccc(Cl)cc2Cl)nc1-c1ccccc1` (centres undefined) here?
A: inconclusive [inhibitor, partial curve]

Q: With `N=C(N)SCCc1ccccn1` as the molecule, how does the activity change, negative = inhibition read?
A: inactive: 1.09% and inactive: -5.09%

Q: With `Cc1cccc(-n2nnc(C(=O)NCc3ccc4c(c3)OCO4)c2N)c1` as the molecule, how does the Potency read?
A: inconclusive [inhibitor, partial curve, poor fit]

Q: For `O=C(Nc1ccc(N2CCCC2)cc1)c1ccccc1F`, which activity change, negative = inhibition is on record?
A: inactive: -9.36%

Q: For `Cc1ccc(-c2n[nH]c(=S)n2/N=C/c2ccc(C)s2)cc1`, which Potency is on record?
A: active: 3.98 µM

Q: Which Potency does the source give for `Cc1[nH]n(-c2ccccc2)c(=O)c1C(c1ccc(C(=O)O)cc1)c1c(C)[nH]n(-c2ccccc2)c1=O` here?
A: inconclusive [inhibitor, partial curve]

Q: With `C=CCn1c(SCC(=O)Nc2nccs2)nnc1-c1cc2cccc(OC)c2o1` as the molecule, how does the Potency read?
A: inconclusive [inhibitor, partial curve]

Q: How did the Potency turn out when `COC(=O)Cn1c(=NC(=O)c2ccc(OC)cc2)sc2cc(OC)ccc21` was run?
A: inconclusive [inhibitor, partial curve]

Q: Which Potency does the source give for `CCOC(=O)c1cn(CC)c2cc(N3CCOCC3)c(F)cc2c1=O` here?
A: inconclusive [inhibitor, single point]

Q: How did the activity change, negative = inhibition turn out when `O=S(=O)(CC(O)COc1ccccc1Cl)c1ccccc1` (centres undefined) was run?
A: inactive: -2.55%

Q: How did the activity change, negative = inhibition turn out when `Cc1c(Cl)cccc1NC(=O)CSc1nc2c(c(=O)[nH]1)CCCC2` was run?
A: inactive: -13.7%

Q: `C=C(C(=O)c1ccccc1)C(C)CC(=O)c1ccccc1` (centres undefined) was tested. Which Potency did it give?
A: active: 28.2 µM

Q: For `CCc1cccc(CC)c1N(COC)C(=O)Cn1ccccc1=N`, which Potency is on record?
A: inconclusive [inhibitor, single point]

Q: How did the Potency turn out when `COc1cc(/C=C/C(=O)NCc2cccnc2)cc(OC)c1OC` was run?
A: inconclusive [inhibitor, partial curve]

Q: With `CCOC(=O)N1CCC(NC(=O)c2cc3c(-c4ccc(Cl)cc4)nn(C)c3s2)CC1` as the molecule, how does the Potency read?
A: inconclusive [inhibitor, partial curve]

Q: Which Potency does the source give for `CC1=CCP(=O)(c2ccccc2)C1` (centres undefined) here?
A: inconclusive [inhibitor, single point]

Q: `O=C(CNC(=O)c1ccc(Oc2ccccc2)cc1)OCc1ccc(Br)cc1` was tested. Which activity change, negative = inhibition did it give?
A: inactive: -9.3%

Q: How did the Potency turn out when `CC(C)NCC(O)Cn1c2c(c3ccccc31)CCc1c-2cnn1-c1ccccc1` (centres undefined) was run?
A: inconclusive [inhibitor, partial curve]

Q: Which activity change, negative = inhibition does the source give for `C=C[C@]1(C)C[C@H](OC(=O)CO)[C@]2(C)C3C(=O)CC[C@]3(CC[C@H]2C)[C@H](C)[C@H]1O` (some centres undefined) here?
A: inactive: -5.45%

Q: How did the Potency turn out when `CCCc1cc(C(N)=O)c(NC(=O)c2ccoc2C)s1` was run?
A: inconclusive [inhibitor, single point]

Q: Which Potency does the source give for `OCc1cc(CO)c(O)c(CCc2ccccc2)n1` here?
A: inconclusive [inhibitor, single point]

Q: For `COc1ccc(C)cc1NC(=O)c1cnc2sccn2c1=O`, which Potency is on record?
A: inconclusive [inhibitor, partial curve]

Q: Which Potency does the source give for `COc1ccc(N2C(=O)CC(Sc3nnc(-c4ccccc4)o3)C2=O)cc1` (centres undefined) here?
A: active: 22.4 µM

Q: For `COC(=O)c1ccc(/C=N/OCC(=O)NC2CCCCCCC2)cc1`, which Potency is on record?
A: active: 28.2 µM

Q: For `O=C1OCCN1C(=O)[C@H]1[C@H](c2ccc(F)cc2)C(c2ccc(F)cc2)=NN1c1ccc(Br)cc1`, which Potency is on record?
A: inconclusive [inhibitor, partial curve]

Q: With `Cc1c(NC(C)c2cc(Cl)ccc2O)c(=O)n(-c2ccccc2)n1C` (centres undefined) as the molecule, how does the Potency read?
A: inconclusive [inhibitor, single point]

Q: With `CCS(=O)(=O)Nc1ccc(-c2nnc(SCC(=O)c3ccc(NC(C)=O)c(OC)c3)o2)cc1` as the molecule, how does the Potency read?
A: active: 0.794 µM

Q: For `O=C(c1ccc(Br)s1)N1CCCC1`, which Potency is on record?
A: active: 14.1 µM

Q: With `N#Cc1nc(COc2ccccc2F)oc1NCCc1ccccc1` as the molecule, how does the Potency read?
A: active: 12.6 µM

Q: `O=C(c1ccco1)N1CCN(c2nc3ccsc3c(=O)s2)CC1` was tested. Which Potency did it give?
A: inconclusive [inhibitor, single point]

Q: Which activity change, negative = inhibition does the source give for `Cc1ccc(C(=O)C(NC(=O)c2ccco2)N2CCOCC2)cc1` (centres undefined) here?
A: inactive: -16.6%

Q: Which activity change, negative = inhibition does the source give for `COc1cc(OC)cc(-n2nnnc2SCC(=O)N2CCCC2)c1` here?
A: inactive: -13%

Q: How did the Potency turn out when `CCOC(=O)c1cn(Cc2cccc(C)c2)nn1` was run?
A: inconclusive [inhibitor, single point]

Q: With `CCCn1c(SCC(=O)c2cc(C)n(-c3ccc4c(c3)OCO4)c2C)n[nH]c1=O` as the molecule, how does the activity change, negative = inhibition read?
A: inactive: -7.76%

Q: How did the activity change, negative = inhibition turn out when `Cc1ccc(-c2csc3ncnc(Cl)c23)cc1` was run?
A: inactive: -6.95%

Q: How did the Potency turn out when `C=CCN1C(=O)N/C(=C/c2ccccc2OCC(=O)Nc2ccc(F)cc2)C1=O` was run?
A: inconclusive [inhibitor, partial curve]

Q: For `CCOC(=O)C1=C2c3ccc4ccccc4c3CC(C)(C)N2C(=O)C1=O`, which Potency is on record?
A: inconclusive [inhibitor, partial curve]

Q: How did the Potency turn out when `COc1cc(Cl)c(C)cc1NC(=O)CSc1nnc(-c2ccco2)n1CC(C)C` was run?
A: inconclusive [inhibitor, single point]

Q: `COc1cc2c(cc1OC)C1=C(C#N)CC/C(=N\S(=O)(=O)c3cccc(Cl)c3)N1CC2` was tested. Which Potency did it give?
A: inconclusive [inhibitor, single point]

Q: For `O=C(NCc1ccco1)c1ccc(COc2ccccc2Cl)cc1`, which Potency is on record?
A: active: 14.1 µM

Q: Which Potency does the source give for `CC(=O)N1N=C(c2ccc3ccccc3c2)OC1(C)C` here?
A: inconclusive [inhibitor, partial curve]

Q: With `O=C(NCc1ccccc1)c1sc(=S)n2c1[nH]c(=O)c1ccccc12` as the molecule, how does the Potency read?
A: inconclusive [inhibitor, partial curve, poor fit]

Q: Which Potency does the source give for `c1ccc(CCCNc2ncccn2)cc1` here?
A: inconclusive [inhibitor, partial curve]

Q: Which Potency does the source give for `CCC(=O)N1CCc2cc(S(=O)(=O)N3CCc4ccccc4C3)ccc21` here?
A: inconclusive [inhibitor, partial curve, poor fit]

Q: With `Cc1ccc(C)c(S(=O)(=O)NCc2ccc(C(=O)N3CCCCC3C)cc2)c1` (centres undefined) as the molecule, how does the Potency read?
A: inconclusive [inhibitor, partial curve]

Q: How did the Potency turn out when `O=c1c(-c2ccc(Cl)cc2)coc2c(CN3CCOCC3)c(O)ccc12` was run?
A: inconclusive [inhibitor, partial curve]

Q: `COc1ccc(OC)c(Nc2ncnc3sc(-c4ccccc4)cc23)c1` was tested. Which Potency did it give?
A: inconclusive [inhibitor, partial curve]

Q: How did the Potency turn out when `Cc1cc2n(n1)C(c1cn(-c3ccccc3)nc1C)Nc1c(C)cccc1-2` (centres undefined) was run?
A: inconclusive [inhibitor, single point]

Q: With `COc1ccc2oc(C(=O)OCC(=O)NCCN3C(=O)CSC3=O)c(C)c2c1` as the molecule, how does the Potency read?
A: inconclusive [inhibitor, partial curve]

Q: Which Potency does the source give for `COc1cccc(OC)c1C(=O)NC(=S)Nc1ccc2c(c1)C(=O)N(C)C2=O` here?
A: inconclusive [inhibitor, single point]

Q: `Cc1ccc(-n2cc(C(=O)c3ccccc3O)cn2)cc1` was tested. Which Potency did it give?
A: inconclusive [inhibitor, partial curve]

Q: How did the Potency turn out when `CCN=c1scc(-c2ccc3c(c2)NC(=O)CO3)n1N=C1CCCC1` was run?
A: active: 15.8 µM

Q: Which activity change, negative = inhibition does the source give for `CCOC(=O)N1CCN(C(c2cccc(OC)c2)c2sc3nc(C)nn3c2O)CC1` (centres undefined) here?
A: inactive: -7.75%
